What all share (test): SPR (Biacore 4000), captured on anti-human Fc, 200 nM ligand injected, 37 C
In general terms: Surface plasmon resonance follows binding to a sensor surface in real time, without labels.

For one experiment, the target named is T1, Activin AC (human, UniProt P55103 237-352).
T1 construct: Heterodimer of one betaA and one betaC subunit; bought (R&D Systems #4879-AC)
T1 sequence 1: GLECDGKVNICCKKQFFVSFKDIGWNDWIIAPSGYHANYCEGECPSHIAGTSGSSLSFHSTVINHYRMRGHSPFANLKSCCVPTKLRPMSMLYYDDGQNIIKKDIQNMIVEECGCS
T1 sequence 2: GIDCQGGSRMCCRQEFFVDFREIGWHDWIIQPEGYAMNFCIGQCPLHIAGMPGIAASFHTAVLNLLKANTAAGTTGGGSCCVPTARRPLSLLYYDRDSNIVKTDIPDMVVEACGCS
On the procedure:
(§1) For the binding experiment, a Biacore 4000 instrument was used. […] All Biacore binding studies were performed in HBS-T running buffer (0.01 M HEPES pH 7.4, 0.5 M NaCl, 3 mM EDTA, 0.5 mg/ml bovine serum albumin, 0.05% v/v Surfactant P20). […] All binding measurements were performed at 37° C. […] Over the captured antibody surface was injected the TGF-beta family ligands through concentrations ranging from 3.1 nM to 200 nM.

For another experiment, the target named is T2, Activin B (human, UniProt P09529 293-407).
T2 construct: Homodimer of two betaB subunits; bought (R&D Systems #659-AB)
T2 chain: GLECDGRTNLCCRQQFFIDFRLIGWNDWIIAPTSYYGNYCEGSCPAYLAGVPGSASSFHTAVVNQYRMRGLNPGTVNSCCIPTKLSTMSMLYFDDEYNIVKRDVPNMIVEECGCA
The protocol: as §1

Another experiment addresses T3, hBMP10 (human, UniProt O95393 317-424).
T3 construct: Bought protein
T3 sequence (looked up): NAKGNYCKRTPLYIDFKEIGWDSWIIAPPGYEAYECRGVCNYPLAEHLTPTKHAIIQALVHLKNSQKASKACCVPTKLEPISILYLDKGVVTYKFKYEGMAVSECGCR
The protocol:
as §1

In a further experiment the target is T4, GDF8 (human, UniProt O14793 267-375).
T4 construct: Bought (R&D Systems #788-G8); also called hGDF8; growth and differentiation factor-8
The protocol:
as §1

In another experiment the target is T5, hBMP7 (human, UniProt P18075 293-431).
T5 construct: Bought protein
T5 sequence (looked up): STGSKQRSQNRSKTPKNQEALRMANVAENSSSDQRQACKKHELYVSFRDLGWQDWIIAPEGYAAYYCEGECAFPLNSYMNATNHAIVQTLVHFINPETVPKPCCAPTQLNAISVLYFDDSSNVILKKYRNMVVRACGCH
The protocol: as §1

Another experiment has as its target T6, GDF11 (human, UniProt O95390 299-407).
T6 construct: Bought protein; also called hGDF11
On the procedure:
as §1

A further experiment concerns the target T7, hBMP4 (human, UniProt P12644 293-408).
T7 construct: Bought protein
T7 sequence (looked up): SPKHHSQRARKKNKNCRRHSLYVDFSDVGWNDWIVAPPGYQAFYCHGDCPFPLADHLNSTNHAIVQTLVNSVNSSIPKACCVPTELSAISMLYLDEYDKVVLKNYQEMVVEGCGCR
The protocol:
as §1

The target in another experiment is T8, Activin A (human, UniProt P08476 311-426).
T8 construct: Homodimer of two betaA subunits; bought (R&D Systems #338-AC); also called inhibin-betaA dimer
T8 sequence: T1 sequence 1
The protocol: as §1

In a further experiment the target is T9, hBMP6 (human, UniProt P22004 382-513, limits assumed).
T9 construct: Bought protein
T9 sequence (looked up): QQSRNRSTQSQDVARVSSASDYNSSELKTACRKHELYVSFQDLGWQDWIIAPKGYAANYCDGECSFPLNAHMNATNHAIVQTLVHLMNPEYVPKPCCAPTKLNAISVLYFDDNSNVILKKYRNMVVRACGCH
On the procedure:
as §1

Another experiment addresses T10, Activin AB (human, UniProt P08476 311-426; P09529 293-407).
T10 construct: Heterodimer of one betaA and one betaB subunit; bought (R&D Systems #1006-AB-005 / #1066-AB)
T10 chain 1: T1 sequence 1
T10 chain 2: T2 chain
On the procedure:
as §1

The target in another experiment is T11, hBMP9 (human, UniProt Q9UK05 320-429).
T11 construct: Bought protein
T11 sequence (looked up): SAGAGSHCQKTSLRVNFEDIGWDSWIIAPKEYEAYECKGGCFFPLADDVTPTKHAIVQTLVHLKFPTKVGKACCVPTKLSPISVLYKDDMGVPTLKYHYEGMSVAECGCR
On the procedure: as §1

In another experiment the target is T12, hBMP2 (human, UniProt P12643 283-396).
T12 construct: Bought protein; also called BPM2
T12 sequence (looked up): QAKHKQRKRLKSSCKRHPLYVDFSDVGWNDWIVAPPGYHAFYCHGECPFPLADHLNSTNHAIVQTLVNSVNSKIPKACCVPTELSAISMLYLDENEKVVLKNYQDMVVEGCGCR
On the procedure: as §1

This is an account of results in US20150037339A1 (Regeneron, published 2015).

Chain of GDF11 (O95390 299-407 limits assumed): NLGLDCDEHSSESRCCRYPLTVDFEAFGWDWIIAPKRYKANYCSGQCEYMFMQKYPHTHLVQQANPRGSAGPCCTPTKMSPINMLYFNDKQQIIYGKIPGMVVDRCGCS

B1: Control 4 (Activin Type IIB receptor-Fc fusion molecule) (Fc fusion)
chain: EAETRECIYYNANWELERTNQSGLERCEGEQDKRLHCYASWANSSGTIELVKKGCWLDDFNCYDRQECVATEENPQVYFCCCEGNFCNERFTHLPEAGGPEVTYEPPPTAPSG[omitted - human IgG1 Fc]
notes: also called ActR2B-hFc; ActRIIB-hFc
Take B1: the “binding response (resonance units) for 200 nM ligand” value was 59.4 RU with Activin AC; 68 RU in the experiment with Activin B; 34.2 RU with hBMP10; 25.8 RU with GDF8; 64.2 RU with hBMP7; 24.2 RU with GDF11. The “binding response (resonance units) for 200 nM ligand” value was 26.4 RU with hBMP4; 70.9 RU with Activin A; 86.3 RU with hBMP6; 59.5 RU with Activin AB; 32.3 RU with hBMP9; 36.9 RU in the experiment with hBMP2.
